# Reference: article PMC4336329 (PLoS ONE, 2015)
# Among all 310,000 compounds or so, about 14,000 (4.5%) showed an effect of 50% or more. Effects have a minus sign here. This is one part of the list.
# Molecular target: human ether-à-go-go-related gene (hERG) potassium channel (human, UniProt Q12809)
# Experiment: primary screen, population patch clamp on CHO cells stably expressing hERG
# 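Note: peak tail current of the secondary pulse compared with the same well before compound.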
# human ether-à-go-go-related gene (hERG) potassium channel, sequence (Q12809 whole entry, looked up): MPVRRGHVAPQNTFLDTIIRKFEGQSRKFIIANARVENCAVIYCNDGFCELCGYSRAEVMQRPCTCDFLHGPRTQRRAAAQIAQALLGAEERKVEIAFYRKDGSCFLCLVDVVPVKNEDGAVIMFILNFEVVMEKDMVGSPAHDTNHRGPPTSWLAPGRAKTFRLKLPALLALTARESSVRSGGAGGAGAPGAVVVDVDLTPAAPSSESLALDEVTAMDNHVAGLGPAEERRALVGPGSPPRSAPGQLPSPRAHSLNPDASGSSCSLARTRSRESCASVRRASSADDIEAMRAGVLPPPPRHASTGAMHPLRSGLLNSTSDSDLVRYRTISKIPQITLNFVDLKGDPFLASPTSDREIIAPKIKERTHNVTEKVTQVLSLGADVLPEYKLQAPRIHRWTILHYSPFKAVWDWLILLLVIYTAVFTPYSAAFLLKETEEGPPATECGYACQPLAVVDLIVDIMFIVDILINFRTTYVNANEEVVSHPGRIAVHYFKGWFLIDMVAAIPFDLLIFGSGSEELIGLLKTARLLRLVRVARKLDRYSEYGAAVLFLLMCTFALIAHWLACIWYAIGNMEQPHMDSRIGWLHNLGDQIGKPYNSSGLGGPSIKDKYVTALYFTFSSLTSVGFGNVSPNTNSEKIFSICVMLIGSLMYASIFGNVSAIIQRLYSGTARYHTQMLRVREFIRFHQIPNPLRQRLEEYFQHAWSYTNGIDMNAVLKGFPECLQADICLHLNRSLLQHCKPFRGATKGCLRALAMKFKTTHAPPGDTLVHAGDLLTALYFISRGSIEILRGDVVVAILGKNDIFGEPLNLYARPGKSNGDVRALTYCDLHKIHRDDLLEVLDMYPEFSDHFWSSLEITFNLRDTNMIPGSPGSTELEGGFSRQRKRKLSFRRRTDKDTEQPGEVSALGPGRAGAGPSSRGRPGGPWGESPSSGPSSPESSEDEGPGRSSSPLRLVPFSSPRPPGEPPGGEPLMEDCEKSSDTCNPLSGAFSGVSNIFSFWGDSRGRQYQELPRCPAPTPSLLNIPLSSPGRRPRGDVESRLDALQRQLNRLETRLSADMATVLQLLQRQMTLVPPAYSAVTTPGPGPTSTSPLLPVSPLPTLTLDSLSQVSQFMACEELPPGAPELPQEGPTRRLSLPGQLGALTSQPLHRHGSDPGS
row,Compound,"hERG current change (%, negative = inhibition) at 10uM [%]"
1,CCC(Oc1ccccc1F)C(=O)Nc1ccc2c(c1)n(C)c(=O)n2C (stereo not shown),7.19
2,C=CCNC(=S)N1CCN(c2ccc([N+](=O)[O-])cc2)CC1,-63.6
3,CCCc1nc2sc3c(c2c(=O)n1NC(=O)c1ccco1)CC(C)(C)OC3,11.8
4,CC(C)(C)c1cc(NC(=O)c2cccnc2)no1,-9.07
5,CNC(=S)Nc1cccc(C(=O)OC)c1,7.73
6,Cc1ccc2c(CSc3nncs3)cc(=O)oc2c1,-26.7
7,Cc1nnc(SCC(=O)NCC2COc3ccccc3O2)s1 (stereo not shown),15.5
8,CCSc1ncnc2c(C#N)c3n(c12)CCCCC3,-23.8
9,Nc1nc(Nc2ccccc2F)nc(NCCO)c1[N+](=O)[O-],-9.81
10,NC(=O)c1c(NC(=O)c2ccccc2)sc2c1CCc1ccccc1-2,-0.721
11,CCOC(=O)C1CCCN(CC(=O)Nc2c(C(=O)OC)[nH]c3ccc(Cl)cc23)C1 (stereo not shown),-12.3
12,NS(=O)(=O)c1cc(C(=O)OCC(=O)Nc2ccccc2[N+](=O)[O-])ccc1Cl,-6.13
13,COc1ccc(CC2(CO)CCN(C/C=C/c3ccccc3OC)CC2)cc1,-72.8
14,CC(=O)NC(Cc1cccc(F)c1)C(=O)NC1CCN(C(=O)Nc2ccc(C)cc2)CC1 (stereo not shown),20.3
15,COc1cccc(C2C(C(=O)c3cccs3)=C(O)C(=O)N2CCN2CCOCC2)c1 (stereo not shown),24
16,CCN(CC)S(=O)(=O)c1ccc(N2CCN(CCOc3ccc(OC)cc3)CC2)nc1,-46.8
17,CCOC(=O)c1c(NC(=O)c2cccs2)sc2c1CC(C)(C)OC2,4.12
18,COc1ccc(Cc2nnc(NC(=O)C3CC(=O)N(c4ccccc4)C3)s2)cc1OC (stereo not shown),-4.44
19,Cc1ccc(C(=O)N/C(=C\c2ccc(-c3ccc(Cl)cc3)o2)C(=O)NCCCN(C)C)cc1,-85
20,CCNC(=S)NNC(=O)c1nn(C)c(C)c1Cl,19
21,CN(C)CCNC(C(=O)Nc1cccc(C(F)(F)F)c1)c1ccccc1.O=C(O)C(=O)O (stereo not shown),-56.7
22,CC(C)CNC(CC(=O)O)c1ccccc1 (stereo not shown),5.03

row,Compound,"hERG current change (%, negative = inhibition) at 10uM [%]"
1,CCOc1ccccc1NC(=O)COc1coc(CN2CCCc3ccccc32)cc1=O,3.31
2,O=C(CCCSc1nc2ccccc2[nH]1)NCc1ccccc1F,-5.8
3,COc1ccc(-c2nc(CN3CCN(Cc4cccc(F)c4)CC3)c(C)o2)cc1,-46.6
4,COc1ccc(N2CCN(C(=O)CCc3ccc(S(=O)(=O)NC(C)(C)C)cc3)CC2)cc1,-26.2
5,CCOC(=O)c1c(C)nn(-c2ncccc2NC(=O)NC(C)C)c1C,-5.56
6,CC(CN1CCCCC1)OC(=O)c1ccccc1F.Cl (stereo not shown),-6.41
7,O=c1cc(O)c(-c2cccc(C(F)(F)F)c2)c(Cl)[nH]1,22.5
8,Cc1ccccc1C(=O)NC(NCC1CCCO1)C(Cl)(Cl)Cl (stereo not shown),-7.57
9,Cc1cn([C@H](C(=O)NCCCCCCCCCCC(=O)N2CCN(C(=O)OC(C)(C)C)CC2)[C@@H](C)O)nn1,13.9
10,CC(=O)C1=C(O)C(=O)N(c2ccc(O)cc2)C1c1ccc([N+](=O)[O-])cc1 (stereo not shown),8.11
11,Cc1ccc(CS(=O)(=O)CCC(=O)NCc2ccccn2)cc1,8.71
12,CCN(CC(=O)NCCc1ccc(S(N)(=O)=O)cc1)Cc1ccccc1,6.99
13,CC(=O)NC(Cc1ccccc1)C(=O)OCC(=O)c1ccc(F)cc1 (stereo not shown),1.03
14,Cc1ccccc1S(=O)(=O)Nc1cccnc1,5.24
15,COc1ccc(C(=O)Cc2ccccc2)cc1OC,0.147
16,COC(=O)[C@@]1(Cc2ccc(OC)cc2)[C@H]2c3cc(C(=O)N4CCCC4)n(Cc4c(CO)[nH]cc(C)c4=O)c3C[C@H]2CN1C(=O)c1ccccc1,3.94
17,CCCCCC(=O)Nc1ccc(N2CCN(S(C)(=O)=O)CC2)cc1,8.59
18,CC(C)C(NC(=O)C1CCCCC1)C(=O)Nc1ccncc1 (stereo not shown),9.18
19,Cc1cc(NS(=O)(=O)c2ccc(NC(=O)CN3C(=O)NC(C)(c4ccccc4)C3=O)cc2)nc(C)n1 (stereo not shown),2.9
20,CCOC(=O)c1cc(-c2ccccc2)nc2ccc(C)cc12,23.8
21,O=c1[nH]cnc2nn(-c3ccccc3)nc12,18.6
22,CCCCN1C(=O)C(NC(=O)CC(C)C)(C(F)(F)F)C2=C1CC(C)(C)CC2=O (stereo not shown),14.1

row,Compound,"hERG current change (%, negative = inhibition) at 10uM [%]"
1,C/C(=N/NC(=O)Cn1nc2ccccc2n1)c1ccc(F)cc1,-7.72
2,CCOC(=O)C1=C(C)Nc2ccccc2N=C1NC(=O)CCCN1C(=O)c2ccccc2C1=O,1.36
3,Cc1ccccc1C(=O)c1cccn1CC(=O)NC(C)c1ccc2c(c1)OCCO2 (stereo not shown),-25
4,CC(=O)Nc1ccc(S(=O)(=O)NCC(=O)OCC(=O)NCc2ccco2)cc1,-21
5,COc1ccc(-c2nc(CSCC(=O)NCCCN3CCCC3=O)c(C)o2)cc1OC,14.8
6,CC(O)CCC(=O)NCCNC(=O)CCC(C)O (stereo not shown),15.7
7,Cc1ccoc1C(=O)N1CCN(C(=O)c2occc2C)CC1,13.6
8,C=CCC(O)c1c(-c2ccccc2)nn(C)c1Cl (stereo not shown),23.1
9,CCN(CC)Cc1c(O)ccc2c([N+](=O)[O-])c(C)n(-c3ccc(OC)cc3)c12,-24.9
10,O=C1C2C3C=CC(C4CC34)C2C(=O)N1/N=C/c1ccc(-c2ccc(Cl)cc2[N+](=O)[O-])o1 (stereo not shown),-13.5
11,Cc1ccc(NC(=O)CC2C(=O)OCC3CCCCN32)cc1Cl (stereo not shown),8.32
12,CCOC(=O)c1c(NC(=O)c2cccs2)sc(C)c1C,3.46
13,Cc1ccc(-c2ccc(C(=O)Nc3cccc(F)c3)o2)c2ccccc12,15.8
14,CCOC(=O)CNC(=O)CSc1nnc(-c2ccccc2OC)n1CC,-1.54
15,O=C(Cc1cccc2ccccc12)NCC(=O)N1CCN(Cc2cccc(C(F)(F)F)c2)CC1,-5.73
16,O=C(Nc1ccccc1Cl)C1CC(=O)N(Cc2ccco2)C1 (stereo not shown),-2.66
17,COc1cccc(N2C(=NC(=O)CCc3ccccc3)SC3CS(=O)(=O)CC32)c1 (stereo not shown),2.12
18,CN1CCN(C(=O)CN(C)S(=O)(=O)c2ccc(F)cc2)CC1,16.8
19,COc1ccc(NC(=O)C(c2ccc(OC)cc2)N(C)C(=O)c2cnccn2)cc1 (stereo not shown),-19.7
20,Cc1ccc(S(=O)(=O)Oc2ccc(C)cc2/C=N/N=C2\NC(=O)C(C)S2)cc1 (stereo not shown),-3.66
21,O=C(COC(=O)C1CC1)Nc1ncc(C(F)(F)F)cc1Cl,31.8
22,CC(C)CCn1c(=O)c2ccccc2c2ccccc2c1=O,-16.8

row,Compound,"hERG current change (%, negative = inhibition) at 10uM [%]"
1,CCOC(=O)c1c2ccc(OCC(=O)NN)cc2n2ccccc12,29
2,COC(=O)C(NS(=O)(=O)c1ccc(NC(C)=O)cc1)C(C)C (stereo not shown),-0.58
3,COCCNC(=O)CNC(=S)N(CCCN1CCOCC1)Cc1cccs1,14.1
4,COC(=O)c1ccc(CNC(=O)Cn2cnnn2)cc1,17.3
5,CCn1c(=O)cc(O)c2ccccc21,7.52
6,CCc1ccc(Nc2nnc(SCn3nnc4ccccc4c3=O)s2)cc1,-14.5
7,Cc1ccc(NC(=O)CSc2nnc(CCC(=O)O)c(=O)[nH]2)cc1,13.1
8,O=C(COC(=O)CCCN1C(=O)c2ccccc2C1=O)Nc1ncc(Cl)cc1Cl,-9.74
9,O=S(=O)(Nc1ccc(-c2nc3cccnc3s2)cc1)c1ccccc1F,18.2
10,CC(C)NC(=O)c1ccc(NC(=O)CC2SC(N3CCCCC3)=NC2=O)cc1 (stereo not shown),9.12
11,O=C(CCCl)N(Cc1nc2ccccc2c(=O)[nH]1)Cc1cccs1,-0.438
12,CC(C)C[C@H]1CN=C(N(C)C)N1CC1CCCCCC1,-19.7
13,CCCOc1cccc(C2C(C(=O)c3cccs3)=C(O)C(=O)N2CCN2CCOCC2)c1 (stereo not shown),29.3
14,Cc1cc(/C=C2\SC(=S)NC2=O)cc(C)c1O,10.8
15,O=C(COC(=O)c1ccncc1)Nc1cc(S(=O)(=O)N2CCOCC2)ccc1Cl,-20.6
16,COc1ccc(N(C(=O)c2ccncc2)S(=O)(=O)c2ccc(Cl)cc2)cc1,-26.4
17,N#Cc1c(-c2cccnc2)cc(-c2ccccc2)nc1N,-13.6
18,CCOC(=O)C1[C@H]2C(=O)N(C(C)c3ccc(OC)cc3)C[C@]23C=C[C@H]1O3 (stereo partly shown),-20
19,O=C(O)c1cc(NC(=S)NC(=O)C(c2ccccc2)c2ccccc2)ccc1Cl,3.77
20,O=C(Cc1ccccc1)Nc1ccccc1Oc1ccccc1,0.28
21,CCOc1ccccc1NC(=O)CSc1nc2ccccc2nc1N1CCCC1,10.2
22,CCOc1ccc2nc(NCCNC(=O)Nc3cccc(C)c3)c(C#N)cc2c1,0.537
